B1: HA-tagged HDM2 M62A (enzyme, not shown: small tags and cut ends)
chain: not shown
B2: HA-tagged HDM2 Q24R (enzyme, not shown: small tags and cut ends)
chain: not shown

Target: p53 tumor suppressor protein, wild-type, full-length (UniProt P04637)
Assay: cell-based or functional assay

Chain of UniProt P04637 (P04637 whole entry): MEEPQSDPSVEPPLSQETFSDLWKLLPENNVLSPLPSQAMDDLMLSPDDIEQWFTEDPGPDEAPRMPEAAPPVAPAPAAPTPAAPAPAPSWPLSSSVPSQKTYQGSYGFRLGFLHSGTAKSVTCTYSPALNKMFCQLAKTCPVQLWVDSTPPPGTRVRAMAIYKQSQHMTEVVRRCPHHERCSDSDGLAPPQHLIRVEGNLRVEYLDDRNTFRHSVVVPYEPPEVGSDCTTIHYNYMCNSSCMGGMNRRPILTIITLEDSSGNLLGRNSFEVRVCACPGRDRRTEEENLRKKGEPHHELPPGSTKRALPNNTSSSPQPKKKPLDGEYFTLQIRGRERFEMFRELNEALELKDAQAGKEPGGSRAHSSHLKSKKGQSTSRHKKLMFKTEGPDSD

| Binder | p53 transactivation reporter activity in p53/MDM2-null DKO cells, no antagonist [%] |
| --- | --- |
| B1 | ~90 |
| B2 | ~90 |
